# Reference: a compilation of properties of binary mixtures (doi:10.1007/s10973-014-3978-x)
# The densities may have been worked out from excess volumes.
# Assay: xn = mol fraction of the nth substance listed
# Conditions: 101 kPa
compound,measurement,setting,value
O=C1CCCC1 + CC[n+]1ccn(C)c1.F[B-](F)(F)F,mass density,"293.15 K, x1 = 0.0877",1268.9 kg/m3
same,mass density,"293.15 K, x1 = 0.1164",1263.6 kg/m3
same,mass density,"293.15 K, x1 = 0.1767",1251.9 kg/m3
same,mass density,"293.15 K, x1 = 0.2302",1240.7 kg/m3
same,mass density,"293.15 K, x1 = 0.2879",1227.8 kg/m3
same,mass density,"293.15 K, x1 = 0.3887",1202.9 kg/m3
same,mass density,"293.15 K, x1 = 0.478",1177.8 kg/m3
same,mass density,"293.15 K, x1 = 0.5878",1142.6 kg/m3
same,mass density,"293.15 K, x1 = 0.6115",1134.3 kg/m3
same,mass density,"293.15 K, x1 = 0.6411",1123.6 kg/m3
same,mass density,"293.15 K, x1 = 0.7649",1073.4 kg/m3
same,mass density,"293.15 K, x1 = 0.7867",1063.6 kg/m3
same,mass density,"293.15 K, x1 = 0.9061",1004.1 kg/m3
same,mass density,"298.15 K, x1 = 0.0877",1265.3 kg/m3
same,mass density,"298.15 K, x1 = 0.1164",1260.1 kg/m3
same,mass density,"298.15 K, x1 = 0.1767",1248.5 kg/m3
same,mass density,"298.15 K, x1 = 0.2302",1237.4 kg/m3
same,mass density,"298.15 K, x1 = 0.2879",1224.6 kg/m3
same,mass density,"298.15 K, x1 = 0.3434",1211.2 kg/m3
same,mass density,"298.15 K, x1 = 0.3887",1199.6 kg/m3
same,mass density,"298.15 K, x1 = 0.5114",1164.3 kg/m3
same,mass density,"298.15 K, x1 = 0.5878",1139.2 kg/m3
same,mass density,"298.15 K, x1 = 0.6115",1130.8 kg/m3
same,mass density,"298.15 K, x1 = 0.6411",1120 kg/m3
same,mass density,"298.15 K, x1 = 0.6834",1103.7 kg/m3
same,mass density,"298.15 K, x1 = 0.7649",1069.4 kg/m3
same,mass density,"298.15 K, x1 = 0.7867",1059.6 kg/m3
same,mass density,"298.15 K, x1 = 0.8157",1046 kg/m3
same,mass density,"298.15 K, x1 = 0.8755",1016 kg/m3
same,mass density,"298.15 K, x1 = 0.9061",999.7 kg/m3
same,mass density,"303.15 K, x1 = 0.0877",1261.6 kg/m3
same,mass density,"303.15 K, x1 = 0.1164",1256.4 kg/m3
same,mass density,"303.15 K, x1 = 0.1767",1244.9 kg/m3
same,mass density,"303.15 K, x1 = 0.3434",1207.9 kg/m3
same,mass density,"303.15 K, x1 = 0.478",1171.2 kg/m3
same,mass density,"303.15 K, x1 = 0.5114",1161 kg/m3
same,mass density,"303.15 K, x1 = 0.5878",1135.8 kg/m3
same,mass density,"303.15 K, x1 = 0.6115",1127.3 kg/m3
same,mass density,"303.15 K, x1 = 0.6411",1116.4 kg/m3
same,mass density,"303.15 K, x1 = 0.6834",1100 kg/m3
same,mass density,"303.15 K, x1 = 0.7649",1065.5 kg/m3
same,mass density,"303.15 K, x1 = 0.7867",1055.5 kg/m3
same,mass density,"303.15 K, x1 = 0.8157",1041.8 kg/m3
same,mass density,"303.15 K, x1 = 0.9061",995.1 kg/m3
same,mass density,"308.15 K, x1 = 0.1164",1252.4 kg/m3
same,mass density,"308.15 K, x1 = 0.1767",1241.1 kg/m3
same,mass density,"308.15 K, x1 = 0.2302",1230.2 kg/m3
same,mass density,"308.15 K, x1 = 0.2879",1217.5 kg/m3
same,mass density,"308.15 K, x1 = 0.3434",1204.3 kg/m3
same,mass density,"308.15 K, x1 = 0.3887",1192.7 kg/m3
same,mass density,"308.15 K, x1 = 0.5114",1157.4 kg/m3
same,mass density,"308.15 K, x1 = 0.5878",1132 kg/m3
same,mass density,"308.15 K, x1 = 0.6115",1123.5 kg/m3
same,mass density,"308.15 K, x1 = 0.6411",1112.5 kg/m3
same,mass density,"308.15 K, x1 = 0.6834",1096 kg/m3
same,mass density,"308.15 K, x1 = 0.7649",1061.2 kg/m3
same,mass density,"308.15 K, x1 = 0.7867",1051.2 kg/m3
same,mass density,"308.15 K, x1 = 0.8157",1037.3 kg/m3
same,mass density,"308.15 K, x1 = 0.8755",1007 kg/m3
same,mass density,"308.15 K, x1 = 0.9061",990.4 kg/m3
CC[n+]1ccn(C)c1.F[B-](F)(F)F + O=C1CCCCC1,mass density,"293.15 K, x2 = 0.0789",1269 kg/m3
same,mass density,"293.15 K, x2 = 0.1407",1256.2 kg/m3
same,mass density,"293.15 K, x2 = 0.1861",1246.2 kg/m3
same,mass density,"293.15 K, x2 = 0.2271",1236.7 kg/m3
same,mass density,"293.15 K, x2 = 0.3069",1216.8 kg/m3
same,mass density,"293.15 K, x2 = 0.3898",1194 kg/m3
same,mass density,"293.15 K, x2 = 0.4269",1183.1 kg/m3
same,mass density,"293.15 K, x2 = 0.489",1163.8 kg/m3
same,mass density,"293.15 K, x2 = 0.5007",1160 kg/m3
same,mass density,"293.15 K, x2 = 0.5432",1145.9 kg/m3
same,mass density,"293.15 K, x2 = 0.6302",1114.8 kg/m3
same,mass density,"293.15 K, x2 = 0.7559",1064.7 kg/m3
same,mass density,"293.15 K, x2 = 0.779",1054.8 kg/m3
same,mass density,"293.15 K, x2 = 0.8235",1035 kg/m3
same,mass density,"293.15 K, x2 = 0.8675",1014.5 kg/m3
same,mass density,"293.15 K, x2 = 0.9001",998.8 kg/m3
same,mass density,"298.15 K, x2 = 0.0789",1265.1 kg/m3
same,mass density,"298.15 K, x2 = 0.1407",1252.4 kg/m3
same,mass density,"298.15 K, x2 = 0.2271",1233 kg/m3
same,mass density,"298.15 K, x2 = 0.3898",1190.5 kg/m3
same,mass density,"298.15 K, x2 = 0.5007",1156.6 kg/m3
same,mass density,"298.15 K, x2 = 0.6302",1111.2 kg/m3
same,mass density,"298.15 K, x2 = 0.6848",1090.1 kg/m3
same,mass density,"298.15 K, x2 = 0.7559",1060.8 kg/m3
same,mass density,"298.15 K, x2 = 0.779",1050.8 kg/m3
same,mass density,"298.15 K, x2 = 0.8235",1030.9 kg/m3
same,mass density,"298.15 K, x2 = 0.8675",1010.3 kg/m3
same,mass density,"298.15 K, x2 = 0.9001",994.5 kg/m3
same,mass density,"303.15 K, x2 = 0.0789",1261.4 kg/m3
same,mass density,"303.15 K, x2 = 0.1407",1248.8 kg/m3
same,mass density,"303.15 K, x2 = 0.1861",1238.9 kg/m3
same,mass density,"303.15 K, x2 = 0.2271",1229.5 kg/m3
same,mass density,"303.15 K, x2 = 0.2765",1217.6 kg/m3
same,mass density,"303.15 K, x2 = 0.3069",1209.8 kg/m3
same,mass density,"303.15 K, x2 = 0.3898",1187.2 kg/m3
same,mass density,"303.15 K, x2 = 0.4269",1176.4 kg/m3
same,mass density,"303.15 K, x2 = 0.489",1157 kg/m3
same,mass density,"303.15 K, x2 = 0.5007",1153.2 kg/m3
same,mass density,"303.15 K, x2 = 0.5432",1139 kg/m3
same,mass density,"303.15 K, x2 = 0.6302",1107.6 kg/m3
same,mass density,"303.15 K, x2 = 0.6848",1086.3 kg/m3
same,mass density,"303.15 K, x2 = 0.779",1046.6 kg/m3
same,mass density,"303.15 K, x2 = 0.8235",1026.5 kg/m3
same,mass density,"303.15 K, x2 = 0.9001",989.9 kg/m3
same,mass density,"308.15 K, x2 = 0.1407",1244.9 kg/m3
same,mass density,"308.15 K, x2 = 0.1861",1235.1 kg/m3
same,mass density,"308.15 K, x2 = 0.2271",1225.8 kg/m3
same,mass density,"308.15 K, x2 = 0.3898",1183.5 kg/m3
same,mass density,"308.15 K, x2 = 0.4269",1172.5 kg/m3
same,mass density,"308.15 K, x2 = 0.489",1153.2 kg/m3
same,mass density,"308.15 K, x2 = 0.5007",1149.3 kg/m3
same,mass density,"308.15 K, x2 = 0.5432",1135 kg/m3
same,mass density,"308.15 K, x2 = 0.6302",1103.5 kg/m3
same,mass density,"308.15 K, x2 = 0.6848",1082.1 kg/m3
same,mass density,"308.15 K, x2 = 0.7559",1052.4 kg/m3
same,mass density,"308.15 K, x2 = 0.779",1042.2 kg/m3
same,mass density,"308.15 K, x2 = 0.8235",1022 kg/m3
same,mass density,"308.15 K, x2 = 0.9001",985.2 kg/m3
